Measured values published in PubChem BioAssay AID504832 (National Center for Advancing Translational Sciences (NCATS), 2011).
Among all 310,000 compounds or so, about 18,000 (5.8%) were called active. The inconclusive results got no clear call from the source; some entries with a clear call stand among them for comparison. Calls follow the shape of the dose curve; as a rule, active = well fitted inhibition curve with a large enough effect; inconclusive = small, poorly fitted or top-dose-only effect, or another doubt; inactive = no such curve, though single readings can be large or run the other way. No potency is given beside an inconclusive call; the fits are too rough.

Assay: Primary qHTS for delayed death inhibitors of the malarial parasite plastid, 48 hour incubation
Details: P. falciparum luciferase growth in erythrocytes; series mostly up to 28.7 µM; activity change, negative = inhibition: at the top concentration
Procedure, shortened: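 Luciferase-expressing P. falciparum in infected erythrocytes (2% hematocrit, 0.1% parasitemia final) in RPMI 1640/0.5% Albumax were exposed to compound for 48 hours at 37 C, 5% CO2; growth read as luminescence.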
% is scaled to controls: 0 for no effect and ±100 for the full control effect; potency is read from the fitted curve at half-maximal effect; tags tell the direction and shape of the fitted curve.

SMILES | activity change, negative = inhibition | Potency
COc1ccc(NC(=O)COC(=O)C2CC2)c(OC)c1 | inactive: 22.2% | 
CC(=O)C1=C(Nc2ccccc2)CC(C)(O)C(C(C)=O)C1c1ccccc1 (stereo not drawn) | inactive: -0.475% | 
Cc1cc(-c2nn(-c3ccccc3F)cc2CN(C)CC(O)CO)c(C)s1 (stereo not drawn) |  | inconclusive [inhibitor, single point]
COc1ccc(NC(=O)CCC2CCCCC2)cc1S(=O)(=O)N1CCCCC1 |  | inconclusive [inhibitor, single point]
COC(=O)c1cc(-c2cccc(OC)c2)c2c(=O)[nH]c(=O)n(C)c2n1 |  | inconclusive [inhibitor, full curve, poor fit]
CCCOc1ccc(CCCN=C(N)N)cc1Cl |  | inconclusive [inhibitor, full curve]
CC(C)(C)OC(=O)N1CCN(C(=O)c2[nH]cnc2C(=O)N[C@@H](Cc2ccccc2)C(=O)OCc2ccccc2)CC1 |  | inconclusive [inhibitor, partial curve, poor fit]
CCn1c(CN2CCN(c3ccc(Cl)cc3)CC2)nc2ccccc21 |  | active: 11.7 µM
Cc1noc(C)c1COc1ccc(C(=O)OCC(=O)c2ccc3c(c2)OCCO3)cc1 | inactive: -5.45% | 
Cc1cccc2nc(-c3cccc(NC(=O)Cc4ccccc4)c3)cn12 | inactive: -19.7% | 
NS(=O)(=O)c1ccc(Nc2nc(-c3ccc(F)cc3)cs2)cc1 | inactive: 30.4% | 
Cc1cccc2c1=NC(=O)/C(=C/c1c(O)[nH]c(=O)[nH]c1=O)C=2 | inactive: 15.4% | 
CCc1ccc(Nc2n[n+](-c3ccccc3)c(-c3cc(OC)c(OC)cc3Br)s2)cc1 |  | inconclusive [inhibitor, partial curve]
O=C(CN1CCOCC1)Nc1ccc(Cl)cn1 |  | inconclusive [inhibitor, full curve, poor fit]
O=C(CCCCl)Nc1c2c(nn1-c1ccccc1)CSC2 | inactive: -8.75% | 
Cc1cccc(-c2nnc(-c3cccc(NC(=O)Cc4cccs4)c3)o2)c1 |  | inconclusive [inhibitor, single point]
CC(=O)N1c2ccc(S(=O)(=O)N3CCC(C(=O)N4CCC(C)CC4)CC3)cc2CC1C (stereo not drawn) |  | inconclusive [inhibitor, full curve, poor fit]
C/C=C(/C(=C/C)c1ccc(O)cc1)c1ccc(O)cc1 | inactive: -23% | 
[O-]/C(=C(\C(=S)Nc1cccc2ccccc12)[n+]1ccccc1)c1ccc(OC(F)F)cc1 |  | inconclusive [inhibitor, single point]
COC(=O)CSc1[nH]c2ccc(Br)cc2c1[N+](=O)[O-] | inactive: 21.9% | 
CCOC(=O)C(CC)(CC)C(=O)/C=C/c1ccc(OC)cc1 |  | inconclusive [inhibitor, single point]
O=[N+]([O-])c1cccc(C2CC(c3ccccc3)=NN2c2ccccc2)c1 (stereo not drawn) |  | inconclusive [inhibitor, single point]

SMILES | activity change, negative = inhibition | Potency
COc1ccc(CCN2C(=O)CSC2=Nc2ccc(C(C)C)cc2)cc1OC |  | active: 10.4 µM
CC(C)=CCSc1nnc([C@@H](NC(=O)OC(C)(C)C)C(C)C)o1 |  | inconclusive [inhibitor, single point]
O=C(Nc1ncccc1O)c1ccc(S(=O)(=O)N2CCCC2)cc1 |  | active: 3.29 µM
CC[C@@]12C(=O)N(c3cccc(F)c3)C(=O)N1[C@H](c1ccc(F)cc1)[C@@H]1C(=O)N(C3CCCCC3)C(=O)[C@@H]12 | inactive: -24.8% | 
O=C(/C=C/c1ccc(Cl)cc1)NC1CCS(=O)(=O)C1 (stereo not drawn) |  | inconclusive [inhibitor, full curve, poor fit]
CCN(CC)C(=O)COc1ccc2c3c(c(=O)oc2c1C)CCCC3 |  | inconclusive [inhibitor, partial curve, poor fit]
CCSc1nnc(NC(=O)CSc2nc3c(c(=O)n2CCOC)SC(C)C3)s1 (stereo not drawn) |  | inconclusive [inhibitor, partial curve, poor fit]
Cc1cccc(OCC(=O)Nc2ccc(N3CCN(C(=O)c4ccco4)CC3)cc2)c1 |  | active: 9.28 µM
O=C(NCCCN1CCCC1=O)c1cn(-c2ccccc2)nc1-c1ccccc1 |  | inconclusive [inhibitor, partial curve, poor fit]
CC(O)c1nc2ccccc2n1CC(=O)Nc1ccc(F)cc1Cl (stereo not drawn) |  | inconclusive [inhibitor, single point]
CC(=O)c1cc2c(cc1N(C(=O)Cn1nnc3ccccc31)C(C(=O)NCCC(C)C)c1cccnc1)OCO2 (stereo not drawn) |  | inconclusive [inhibitor, partial curve, poor fit]
CC1=C(/C=C/C(C)=C/C=C/C(C)=C/CO)C(C)(C)CCC1 |  | inconclusive [inhibitor, single point]
Cc1nn(Cc2ccc(C(=O)N/N=C/c3ccncc3)o2)c(C)c1Cl |  | inconclusive [inhibitor, single point]
COc1ccc(OC)c(CN2C(=O)c3ccccc3C2C(=O)NCc2cccnc2)c1 (stereo not drawn) |  | inconclusive [inhibitor, single point]
CCc1cc2ccc(OC)cc2nc1SCC(=O)N1CCN(C(=O)c2ccco2)CC1 |  | inconclusive [inhibitor, single point]
Cc1ccc(C)c(NC(=S)/C(=C(\[O-])c2ccc(OC(F)F)cc2)[n+]2ccccc2)c1 |  | inconclusive [inhibitor, single point]
COc1cc(/C=N/NC(=O)c2cc(-c3ccco3)nc3ccccc23)cc(OC)c1O |  | inconclusive [inhibitor, single point]
CCc1ccc(-c2cc(C)no2)cc1S(=O)(=O)NCCCN1CCN(c2ccccc2)CC1 |  | active: 13.1 µM
CCOc1ccccc1NC(=S)NC(=O)CCc1ccccc1 |  | inconclusive [inhibitor, single point]
Cc1cc(NC(=O)COC(=O)c2cccc(S(=O)(=O)N(C)C3CCCCC3)c2)no1 | inactive: 10.2% | 
CCOc1ncccc1C(=O)OCC(=O)c1ccccc1 | inactive: 18% | 
